Data published in the supplement of paper PMC3724861.
Some of the results follow.

The sequences below were run on T1, Caupolican (Caup) homeodomain DNA-binding domain (assay: PBM E-score (8-mer, recovered from the published 9-mer minima) (E-score (dimensionless, -0.5 to 0.5)); Drosophila protein; higher = stronger relative binding preference, active = 0.31 or more).
T1 sequence: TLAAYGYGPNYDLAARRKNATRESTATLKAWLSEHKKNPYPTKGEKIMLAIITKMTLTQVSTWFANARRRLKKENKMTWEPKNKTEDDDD
Summary of the method: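 Caup's homeodomain DNA-binding domain (residues 214-303) was produced by in vitro transcription and translation and applied at 100 nM to custom-designed protein binding microarrays. Each value is an enrichment score giving relative binding preference for a short DNA word; higher means stronger. Published 9-mer scores were the minimum of their two constituent 8-mer scores, and the 8-mer values were recovered from those minima. A cutoff of 0.31 marks candidate binding sequences.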

| Sequence | PBM E-score |
| --- | --- |
| ATTGATAA | ≥ 0.161 |
| CCTAGTAG | inactive: 0.0229 |
| CGGCGTTC | inactive: -0.195 |
| GCATGAAC | inactive: 0.104 |
| GCGGAATA | inactive: -0.0586 |
| GACCGTTA | inactive: 0.0165 |
| CATCGCAC | inactive: -0.083 |
| TCAGGACA | inactive: 0.159 |
| CGCGTCTC | inactive: -0.0855 |
| ACTCTTAT | inactive: 0.0766 |
| TATACAGA | inactive: 0.217 |
| CGCATACA | inactive: 0.19 |
| GCGGTAGA | inactive: -0.143 |
| ACCTAAAA | ≥ 0.052 |
| GGCGTTCA | inactive: -0.0934 |
| CAGTACCC | inactive: -0.0363 |
| ACCCACTG | inactive: -0.0838 |
| ACTCTCCG | inactive: -0.151 |
| ACGAATAG | inactive: -0.00982 |
| CTCCTAGC | inactive: -0.16 |
| CCAGTAGG | inactive: -0.0825 |
| TATTACCA | inactive: 0.18 |
| GGAGTTGA | inactive: -0.079 |
| ACGGAGGC | inactive: -0.228 |
| GATCACGC | inactive: 0.0866 |
| CGTGACGA | inactive: -0.0536 |

| Sequence | PBM E-score |
| --- | --- |
| TCCCGCAA | inactive: -0.0491 |
| ACACTACA | ≥ 0.27 |
| ACCAATTA | ≥ 0.129 |
| GACAACAC | active: 0.352 |
| AAGCGCAT | inactive: -0.0288 |
| CGAGTCGC | inactive: -0.167 |
| TAGTACGA | inactive: 0.0955 |
| CCCCCCTC | inactive: -0.37 |
| TATAGTAA | inactive: 0.217 |
| CCCGTGCC | inactive: -0.28 |
| GATGCTAC | inactive: 0.0965 |
| ATTCAGTC | inactive: 0.00318 |
| AAAATAGA | inactive: 0.105 |
| AAATCACA | inactive: 0.108 |
| AGCGGCCA | inactive: -0.198 |
| CGATCCCC | inactive: -0.0622 |
| ATGATGGC | inactive: -0.037 |
| AGCTACAA | inactive: 0.193 |
| ACGAGAGA | inactive: 0.0344 |
| CAGGTTAA | inactive: 0.126 |
| AAACTCTA | inactive: 0.0323 |
| CTATGAGA | inactive: -0.107 |
| AAAATCTA | inactive: 0.0466 |
| AGTGCTGC | inactive: -0.139 |
| CAGTTATC | inactive: -0.0794 |
| ACCGTCGG | inactive: -0.206 |

| Sequence | PBM E-score |
| --- | --- |
| ATCGCCGG | inactive: -0.179 |
| ACCCCTCG | inactive: -0.218 |
| GCTCCACC | inactive: -0.174 |
| AGTGACTG | inactive: -0.0421 |
| AGCTCAAC | inactive: -0.0254 |
| AACCCATA | ≥ 0.135 |
| GTTTTTAA | inactive: 0.0416 |
| ATAGAATC | inactive: 0.0121 |
| AATTACGG | inactive: -0.0308 |
| ACATGATG | active: 0.351 |
| AAAAAGAA | inactive: 0.0308 |
| GCTCTACC | inactive: -0.0838 |
| AACATTGT | active: ≥ 0.347 |
| AGTATCCC | inactive: -0.0274 |
| TCTCTGAA | inactive: -0.00572 |
| AACTCGGT | ≥ 0.0208 |
| AATGAAAT | inactive: 0.139 |
| CCCACAGC | inactive: -0.0615 |
| AAAGTACT | inactive: 0.0747 |
| AGCCCGGC | inactive: -0.274 |
| AACGAGTC | inactive: 0.0439 |
| AGCCTCGC | inactive: -0.13 |
| AGCATTGG | inactive: -0.0485 |
| CATAACCA | inactive: 0.168 |
| GTGAGTCA | inactive: 0.0761 |
| ATTAGTGA | inactive: 0.107 |

| Sequence | PBM E-score |
| --- | --- |
| CCAGACCG | inactive: -0.146 |
| GTAAGAAA | inactive: 0.0907 |
| CATCCACC | inactive: -0.054 |
| TATGGTAA | inactive: 0.118 |
| GGCATGTA | active: 0.378 |
| GCGTGGAA | inactive: -0.169 |
| GTACAAAC | inactive: 0.265 |
| ACCATGTG | inactive: 0.145 |
| AAAGCGTC | inactive: -0.114 |
| TCCCATCA | inactive: -0.0689 |
| ATAATTAG | inactive: 0.103 |
| GGTGGTAA | inactive: 0.0159 |
| ACTCTACC | inactive: 0.00157 |
| TGGAAGAA | ≥ -0.0169 |
| ATCATGCC | inactive: 0.0227 |
| ATTGCGAA | inactive: 0.0868 |
| AGTCGGTA | inactive: 0.0133 |
| AACCCAGG | inactive: -0.0346 |
| CGAAAGTC | inactive: -0.142 |
| CACTGCGC | inactive: -0.211 |
| AAAGAGTG | inactive: 0.0835 |
| GTCCACTA | inactive: 0.0623 |
| AGTAAAAG | inactive: 0.0382 |
| GTCAAGTA | inactive: 0.119 |
| AGGAGAGA | ≥ -0.0172 |
| GAGACTCC | inactive: -0.128 |

| Sequence | PBM E-score |
| --- | --- |
| CGCTGTCC | inactive: 0.0333 |
| CAAAAGTG | inactive: 0.0472 |
| AAAAGGGA | inactive: -0.0407 |
| GTATACCA | inactive: 0.101 |
| AAACACTA | inactive: 0.193 |
| AGGATGCG | inactive: -0.136 |
| ACTAGAAG | inactive: 0.00911 |
| GTTCCGTA | inactive: 0.161 |
| AACATGCG | active: 0.356 |
| CCTAACGA | inactive: -0.104 |
| AAAAAGAT | inactive: 0.0993 |
| CTCCCCGC | inactive: -0.2 |
| AGGAAGTA | inactive: 0.0399 |
| GACGCGTC | inactive: -0.0916 |
| CGGCTAAA | inactive: -0.0694 |
| ACGTGGTG | inactive: 0.063 |
| GGGGGTCA | inactive: -0.293 |
| TGTTTGAA | inactive: 0.193 |
| AGAATTCG | inactive: 0.0601 |
| CGGGTGCC | inactive: -0.264 |
| ATGGCACC | inactive: -0.167 |
| AGTTTTAC | inactive: 0.0904 |
| CGCGTTGC | inactive: -0.0579 |
| CTTGACCA | inactive: 0.0911 |
| AAGTAGCG | inactive: -0.0607 |
| CGGTCAAG | inactive: -0.0422 |

| Sequence | PBM E-score |
| --- | --- |
| ACTGTAAC | inactive: 0.17 |
| CAGTTGAA | inactive: 0.0676 |
| ACGCATCA | ≥ 0.0212 |
| GAACCAGA | inactive: 0.034 |
| GGCCCCGA | inactive: -0.219 |
| CAAGTTCC | inactive: 0.0429 |
| AGATAGAG | inactive: -0.0135 |
| GTAGGTTA | inactive: 0.112 |
| GTCTAAGA | inactive: 0.0233 |
| GGCGGAGA | inactive: -0.216 |
| GCATCGGC | inactive: -0.105 |
| CAATTCGC | inactive: 0.0736 |
| ACCTTTAT | inactive: 0.0326 |
| GTAAGAGA | inactive: 0.016 |
| AGGAGACA | inactive: 0.111 |
| CTGGGTTC | inactive: -0.0931 |
| GCGTACCC | inactive: -0.114 |
| CTTCTCAA | inactive: -0.0891 |
| CACTGCGA | inactive: -0.104 |
| ACGTGCTA | inactive: 0.0513 |
| ATCCACGC | inactive: -0.102 |
| GTTTTACA | inactive: 0.183 |
| CTCTATTC | inactive: 0.00353 |
| GTAATGAC | inactive: 0.17 |
| CTGTCGTA | inactive: 0.124 |
| GCCCTCAA | inactive: -0.171 |

| Sequence | PBM E-score |
| --- | --- |
| ACCGGAGA | ≥ -0.0601 |
| GGTCCCTA | inactive: -0.114 |
| CGATATAC | inactive: 0.0606 |
| AACCCGAG | inactive: -0.0937 |
| CGTAGAGA | inactive: -0.0673 |
| CTCGCCGC | inactive: -0.154 |
| GGAAGCCC | inactive: -0.265 |
| ATCCAGGC | inactive: -0.165 |
| CTCTAGCC | inactive: -0.102 |
| CCGAAGAC | inactive: -0.107 |
| CGCGTTGA | inactive: -0.0594 |
| ACAATTCT | inactive: 0.142 |
| GCTGTAGA | inactive: 0.0556 |
| AAGTGCTC | inactive: -0.121 |
| CTCAGTGA | inactive: -0.051 |
| ATGTGAAA | inactive: 0.0895 |
| ACCACCAA | inactive: -0.00096 |
| CAGTAGTA | inactive: 0.175 |
| TCGCATCA | inactive: -0.0286 |
| GAGTATCA | inactive: 0.0538 |
| ATGATCAG | inactive: 0.0578 |
| GGGATCTA | inactive: -0.0922 |
| GGGTTCAC | inactive: -0.1 |
| CATAGACC | inactive: -0.06 |
| GAGTATCC | inactive: -0.0506 |
| ATGCTGTA | inactive: 0.201 |

| Sequence | PBM E-score |
| --- | --- |
| CAGCCCTA | inactive: -0.0527 |
| AATATATA | inactive: 0.253 |
| ATTTGTAA | inactive: 0.277 |
| ATAGCCGA | ≥ 0.0053 |
| TCGTCCCA | inactive: 0.00693 |
| AACGCAGT | inactive: -0.0614 |
| CTAACAGC | inactive: 0.0198 |
| GAACCTTA | inactive: -0.108 |
| ATTTCGTG | inactive: 0.141 |
| AGGACCCG | inactive: -0.197 |
| ATGGTTGG | inactive: -0.0636 |
| AGTAATGG | inactive: 0.0896 |
| GGGGAGGA | inactive: -0.324 |
| AGCTTCCT | inactive: -0.0709 |
| AATCGGAA | inactive: 0.0527 |
| AAAACCGT | ≥ 0.0731 |
| GCAGGGAA | inactive: -0.0579 |
| CTTGTAAA | active: 0.365 |
| CGCCAACA | inactive: 0.00728 |
| CTTCTACA | inactive: 0.198 |
| CCGTCCGC | inactive: -0.209 |
| GATGAGAA | inactive: 0.0364 |
| CAGGGTGC | inactive: -0.238 |
| AAGCAACA | inactive: 0.217 |
| AGTTCGCG | inactive: -0.103 |
| ATAAAGCG | inactive: 0.0105 |

| Sequence | PBM E-score |
| --- | --- |
| CGTACGTC | inactive: 0.0832 |
| AAATAGAC | inactive: 0.116 |
| AGAGGTTG | inactive: -0.0274 |
| GTACCATA | inactive: 0.208 |
| GTCCAAAC | inactive: -0.0103 |
| ACTCACAC | inactive: 0.00323 |
| AACAGAGG | inactive: 0.0242 |
| GCGAGGAA | inactive: -0.104 |
| GGCTCCAC | inactive: -0.186 |
| AGTCAAGG | inactive: -0.0408 |
| ACACTTAC | inactive: 0.195 |
| GCTCGAAC | inactive: 0.0469 |
| ACGCAATA | ≥ 0.0579 |
| GATGGTCC | inactive: -0.0416 |
| CCAGGACA | inactive: 0.14 |
| TATGTTGA | inactive: 0.288 |
| GACGTCCA | inactive: -0.0398 |
| ACGTTCTG | inactive: -0.0375 |
